Test results taken from the supplement of paper PMC8047034.
Structures can show the parent of a compound that is named as a salt. Some of the results follow. Repeats are few or missing, and single values can be far off.

What follows are compounds tested on OVCAR4 (assay: log2 surviving fraction (library drug vs vehicle, or drug + carboplatin vs carboplatin alone; relative to plate median); ovarian cancer lines: OVCAR4 is platinum-sensitive and Ov4Carbo platinum-resistant; higher = more cell survival). Details: library drug concentration 10 µM; 7 days; carboplatin co-treatment 5 µM.

| SMILES | log2 surviving fraction |
| --- | --- |
| Nc1nc(N)c2nc(-c3ccccc3)c(N)nc2n1 [triamterene] | -0.332 |
| CCC(=O)O[C@]1(C(=O)SCF)[C@H](C)C[C@H]2[C@@H]3C[C@H](F)C4=CC(=O)C=C[C@]4(C)[C@@]3(F)[C@@H](O)C[C@@]21C [Fluticasone propionate (Flonase, Veramyst)] | 0.663 |
| CCN1CCN(C(=O)N[C@@H](C(=O)N[C@@H]2C(=O)N3[C@@H]2SC(C)(C)[C@@H]3C(=O)O)c2ccccc2)C(=O)C1=O [Piperacillin Sodium] | 0.479 |
| CC#CCn1c(N2CCC[C@@H](N)C2)nc2c1c(=O)n(Cc1nc(C)c3ccccc3n1)c(=O)n2C [Linagliptin (BI-1356)] | -1.04 |
| C#CCN[C@@H]1CCc2ccccc21 [Rasagiline mesylate] | -0.479 |
| CCN1CCN(c2cc(-c3ccc(F)cc3)c3c(n2)CCCCCC3)CC1 [Blonanserin (Lonasen)] | -0.195 |
| CC[C@H]1OC(=O)C[C@@H](O)[C@H](C)[C@@H](O[C@@H]2O[C@H](C)[C@@H](O)[C@H](N(C)C)[C@H]2O)[C@@H](CCN2C[C@H](C)C[C@H](C)C2)C[C@@H](C)C(=O)/C=C/C(C)=C/[C@@H]1CO[C@@H]1O[C@H](C)[C@@H](O)[C@@H](OC)[C@H]1OC [Tilmicosin] | 0.856 |
| C[N+](C)(C)C[C@H](O)CC(=O)[O-] [L-carnitine (Levocarnitine)] | 0.287 |
| Fc1ccc(C(c2ccc(F)cc2)N2CCN(C/C=C/c3ccccc3)CC2)cc1 [Flunarizine 2HCl] | -2.35 |
| CCCNC(C)C(=O)Nc1ccccc1C (centres undefined) [Prilocaine] | -0.233 |
| C[C@]12CC[C@H](O)CC1=CC[C@@H]1[C@@H]2CC[C@]2(C)C(=O)CC[C@@H]12 [Dehydroepiandrosterone (DHEA)] | -0.00608 |
| Nc1ncnc2c1ncn2[C@@H]1O[C@H](COP(=O)(O)OP(=O)(O)OP(=O)(O)O)[C@@H](O)[C@H]1O [ATP (Adenosine-Triphosphate)] | 1.8 |
| CCc1c(Cl)c(O)c(Cl)c(O)c1C(=O)O[C@H]1[C@H](O)[C@H](OC)[C@H](OC/C2=C\C=C\C[C@H](O)/C(C)=C/[C@H](CC)[C@@H](O[C@@H]3OC(C)(C)[C@@H](OC(=O)C(C)C)[C@H](O)[C@@H]3O)/C(C)=C/C(C)=C/C[C@@H]([C@@H](C)O)OC2=O)O[C@@H]1C [Fidaxomicin] | -0.592 |
| Clc1ccc2c(c1)C(N1CCNCC1)=Nc1ccccc1O2 [Amoxapine] | -0.515 |
| Cc1cccc(C)c1NC1=NCCCS1 [Xylazine HCl] | 0.0257 |
| CCN[C@H]1CN(CCCOC)S(=O)(=O)c2sc(S(N)(=O)=O)cc21 [Brinzolamide] | 0.497 |
| CNCCCC12CCC(c3ccccc31)c1ccccc12 [Maprotiline hydrochloride] | -1.4 |
| CN1CCN(c2c(F)cc3c(=O)c(C(=O)O)cn4c3c2OCN4C)CC1 [Marbofloxacin] | 0.704 |
| OCCOCCN1CCN(C(c2ccccc2)c2ccc(Cl)cc2)CC1 (centres undefined) [Hydroxyzine 2HCl] | 0.684 |
| Cc1onc(-c2ccccc2)c1C(=O)N[C@@H]1C(=O)N2[C@@H]1SC(C)(C)[C@@H]2C(=O)O [Oxacillin sodium monohydrate] | 0.426 |

| SMILES | log2 surviving fraction |
| --- | --- |
| O=S(=O)(O)CCS [Mesna (Uromitexan, Mesnex)] | 0.53 |
| CCC[C@@H]1C[C@@H](C(=O)N[C@@H]([C@H]2O[C@H](SC)[C@H](O)[C@@H](O)[C@H]2O)[C@H](C)Cl)N(C)C1 [Clindamycin] | 0.685 |
| O=C(O[C@H]1C[C@H]2CC[C@@H](C1)[N+]21CCCC1)C(O)(c1ccccc1)c1ccccc1 [Trospium chloride (Sanctura)] | 0.387 |
| CCCCCCOC(=O)NC(=N)c1ccc(NCc2nc3cc(C(=O)N(CCC(=O)OCC)c4ccccn4)ccc3n2C)cc1 [BIBR-1048 (Dabigatran)] | 1.17 |
| Clc1ccc(COC(Cn2ccnc2)c2ccc(Cl)cc2Cl)c(Cl)c1 (centres undefined) [Miconazole nitrate] | -2.34 |
| CCOC(=O)[C@H](CCc1ccccc1)N[C@H]1CCc2ccccc2N(CC(=O)O)C1=O [Benazepril hydrochloride] | 1.26 |
| COc1ccc(CNc2nc(N3CCC[C@H]3CO)ncc2C(=O)NCc2ncccn2)cc1Cl [Avanafil] | 0.377 |
| NCCNCCNCCNCCN [Tetraethylenepentamine 5HCl] | -1.57 |
| Nc1[nH]cnc2ncnc1-2 [Adenine hydrochloride] | 1.73 |
| Nc1nc(N)nc(NC2CC2)n1 [Cyromazine] | -0.0759 |
| Cc1cc(NS(=O)(=O)c2ccc(N)cc2)no1 [Sulfamethoxazole] | 1.4 |
| CCn1nc(C(=O)O)c(=O)c2cc3c(cc21)OCO3 [Cinoxacin] | 0.328 |
| CCN(CC)C(=O)C1(c2ccccc2)CC1CN (centres undefined) [Milnacipran HCl] | 0.296 |
| Clc1ccc(C(Cn2ccnc2)OCc2c(Cl)cccc2Cl)c(Cl)c1 (centres undefined) [Isoconazole nitrate (Travogen)] | -1.51 |
| NCCCC[C@H](N[C@@H](CCc1ccccc1)C(=O)O)C(=O)N1CCC[C@H]1C(=O)O [Lisinopril (Zestril)] | 0.215 |
| CN1CCC[C@H]1c1cccnc1 [Nicotine Ditartrate] | -0.0735 |
| CCN(C)C(=O)Oc1cccc([C@H](C)N(C)C)c1 [Rivastigmine tartrate (Exelon)] | -0.268 |
| COc1ccccc1OCC(O)COC(N)=O (centres undefined) [Methocarbamol (Robaxin)] | 0.345 |
| C[C@]12CC[C@@H]3c4ccc(O)cc4CC[C@H]3[C@@H]1CC[C@@H]2O [Estradiol] | -0.0409 |
